In PubChem BioAssay AID588342 (National Center for Advancing Translational Sciences (NCATS), 2011):
Out of some 360,000 compounds screened, about 25,000 (6.9%) were called active. Inconclusive means that the source gave no clear call. Such entries were picked first, then a sample of the others. Calls come from the whole dose curve; as a rule, active = well fitted inhibition curve with a large enough effect; inconclusive = small, poorly fitted or top-dose-only effect; inactive = flat fitted curve, though single readings scatter. Where the call is inconclusive, the potency comes from a doubtful curve fit.

Target: Luciferin 4-monooxygenase (Photinus pyralis) (UniProt P08659)
Test: qHTS profiling assay for firefly luciferase inhibitor/activator using purifed enzyme and Km concentrations of substrates (counterscreen for miR-21 project); note: nearly all actives have a fitted effect of over 55% in size;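 for activity change, negative = inhibition: plate controls were vehicle for no effect and reference inhibitor for full effect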
Conditions: purified FLuc, luminescence inhibition; activity change, negative = inhibition: at 57.5 µM (top of the series)
Method in brief: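 Purified P. pyralis luciferase, 10 nM final, with Km-level 10 uM D-luciferin and 10 uM ATP in 50 mM Tris acetate pH 7.5, 10 mM Mg acetate, 0.01% Tween-20, 0.05% BSA; 6-point qHTS titration about 60 µM downward; luminescence read.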
Potency is the fitted concentration of half-maximal effect; tags give direction and shape of the fitted curve.

Chain of UniProt P08659 (P08659 whole entry, looked up): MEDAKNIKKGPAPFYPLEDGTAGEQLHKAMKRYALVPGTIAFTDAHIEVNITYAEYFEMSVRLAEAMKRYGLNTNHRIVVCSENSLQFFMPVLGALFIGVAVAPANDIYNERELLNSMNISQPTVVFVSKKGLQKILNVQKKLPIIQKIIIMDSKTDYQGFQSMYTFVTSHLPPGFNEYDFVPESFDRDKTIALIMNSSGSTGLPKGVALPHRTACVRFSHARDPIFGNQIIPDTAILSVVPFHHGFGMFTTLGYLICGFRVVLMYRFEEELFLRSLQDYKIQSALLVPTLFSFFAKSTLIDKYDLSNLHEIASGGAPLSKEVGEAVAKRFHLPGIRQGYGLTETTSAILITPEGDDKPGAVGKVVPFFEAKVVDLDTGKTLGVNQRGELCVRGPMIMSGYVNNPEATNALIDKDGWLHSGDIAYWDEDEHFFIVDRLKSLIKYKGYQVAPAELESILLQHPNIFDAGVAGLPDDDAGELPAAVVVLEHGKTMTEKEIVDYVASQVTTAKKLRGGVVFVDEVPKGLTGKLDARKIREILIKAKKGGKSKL

SMILES | Potency | activity change, negative = inhibition
CC(Cc1ccccc1)NC(=O)c1cc2ccccc2o1 (stereo unspecified) | inconclusive: 15.1 µM [inhibitor, partial curve, poor fit] | 
Cc1ccc(C(=O)Nc2cccc(C(=O)NCc3ccccc3)c2)o1 | inconclusive: 37.9 µM [inhibitor, single point] | 
CC(C)Cn1c(N)c(C(=O)COC(=O)c2cnc(Cl)c(Cl)c2)c(=O)n(C)c1=O |  | inactive: -2.37%
Cc1ccc(N=Nc2c(C)[nH]n(C(N)=S)c2=O)cc1C | active: 3.79 µM | 
COc1cc(C(=O)Nc2ccc3c(c2)OCCO3)ccc1OC(C)C | active: 7.57 µM | 
Cc1ccc(/C=C2/Sc3ccc(C(=O)NCCN4CCOCC4)cc3NC2=O)cc1 | inconclusive: 2.13 µM [inhibitor, full curve] | 
COc1cccc(/C=N\Nc2nncc(-c3ccccc3)n2)c1 | inconclusive: 3.01 µM [inhibitor, partial curve] | 
CCC(=O)N1c2ccc(S(=O)(=O)N3CCN(c4ccc([N+](=O)[O-])cc4)CC3)cc2CC1C (stereo unspecified) |  | inactive: 0.472%
Cc1ccc(NC(=O)c2cnn(-c3ccccc3)c2C)c(C)c1 | active: 12 µM | 
COc1ccccc1NC(=O)c1cccc(NC(=O)c2ccco2)c1 | inconclusive: 16.9 µM [inhibitor, partial curve] | 
O=C(NN1C(=O)/C(=C/c2cccs2)SC1=S)c1ccccc1 |  | inactive: 0.397%
COc1ccccc1N1CCN(C(=O)C(OC(C)=O)c2ccccc2)CC1 (stereo unspecified) |  | inactive: 1.07%
Cc1ccc(Cl)cc1NC(=O)C1CCCN(S(=O)(=O)c2c(C)noc2C)C1 (stereo unspecified) |  | inactive: -2.04%
O=C(Cn1cc(SCc2ccc(C(F)(F)F)cc2)c2ccccc21)N1CCCCCC1 |  | inactive: -1.7%
CC1(C)Cc2c(cnn2-c2ccccc2)C(=O)/C1=N\NC(=O)c1ccccc1O | inconclusive: 21.3 µM [inhibitor, single point] | 
COc1ccc2c(CN(C)c3ccccc3)cc(=O)oc2c1 | inconclusive: 37.9 µM [inhibitor, partial curve, poor fit] | 
O=C(NCCN1CCOCC1)c1cccc(S(=O)(=O)Nc2ccc(F)cc2)c1 |  | inactive: 3.82%
O=C(O)c1ccc(CNC(=O)c2ccc3c(c2)OCCO3)cc1 | inconclusive: 16.9 µM [inhibitor, partial curve] | 
O=C(CC(Nc1ccc(F)cc1)C(=O)OCC(=O)c1cccs1)c1ccccc1 (stereo unspecified) | inconclusive: 4.78 µM [inhibitor, partial curve] | 
COc1ccc(-c2cn3cc(C(F)(F)F)cc(Cl)c3n2)cc1 | active: 3.01 µM | 
O=C(NCCc1ccccn1)c1cc(-c2ccc(Cl)cc2)nc2ccccc12 | active: 16.9 µM | 
